Laboratory results taken from PubChem BioAssay AID1346428 (National Center for Advancing Translational Sciences (NCATS), 2018).
Several values for one entry are separate records, joined by “and”; a condition that tells them apart may be missing. Equal entries are not always repeated. In all, about 48,000 compounds went through this assay and about 1,200 (2.5%) were called active. Not shown: some 2% with an inconclusive outcome.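 Rule for the calls: active = activation of at least 60% and not above a set upper limit (about 1 call in 100 departs from these limits); inconclusive = activation of 40% to 60%, or above that upper limit; inactive = activation under 40%.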 Some of the results follow.

What follows are molecules tested against Probable G-protein coupled receptor 32 (Homo sapiens) (UniProt O75388) (assay: qHTS for Agonists of Human Resolvin D1 Receptor DRV1). Details: CHO-K1 GPR32 beta-arrestin PathHunter luminescence, 90 min; at 76.9 µM; stronger effect = higher value; zero percent set by DMSO-only wells.
Summary of the method: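 PathHunter enzyme-fragment complementation, CHO-K1 GPR32 stable line; 2,500 cells/well, overnight attach; cpd 90 min 37 °C 5% CO2; detection reagent 1 h RT; chemiluminescence. DMSO = EC0.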

UniProt O75388, sequence (O75388 whole entry, looked up, the tested form may be a part): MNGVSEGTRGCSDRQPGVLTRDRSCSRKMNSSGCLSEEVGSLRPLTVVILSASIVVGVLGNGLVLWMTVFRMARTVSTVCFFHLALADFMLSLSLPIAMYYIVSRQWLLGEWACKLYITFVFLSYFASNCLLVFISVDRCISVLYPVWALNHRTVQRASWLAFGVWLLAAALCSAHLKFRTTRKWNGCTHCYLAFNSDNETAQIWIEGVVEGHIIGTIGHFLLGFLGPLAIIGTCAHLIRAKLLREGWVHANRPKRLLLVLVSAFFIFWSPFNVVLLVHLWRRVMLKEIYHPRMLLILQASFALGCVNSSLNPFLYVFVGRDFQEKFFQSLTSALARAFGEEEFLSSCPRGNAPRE

SMILES	activation
COc1ccc(-c2noc(CCC(=O)Nc3ccc(C(F)(F)F)cc3)n2)cc1	inactive: 13.4%
CC(=O)c1ccc(N2CCN(c3ncnc4c3nc3n4CCCC3)CC2)cc1	inactive: -5.93%
Cc1ccc(CSc2oc(-c3cccs3)nc2S(=O)(=O)c2ccccc2)cc1	inactive: -9.87%
COc1ccccc1N1CCN(c2ncc3c(n2)CCN(Cc2ccccc2F)C3)CC1	inactive: -2.61%
COc1ccc(CCNC(=O)Cc2c(C)c3c(cc(C)c4c(C)c(C)oc43)oc2=O)cc1	inactive: -7.84%
C#C[C@]1(O)CC[C@H]2[C@@H]3[C@H](C)CC4=C(CCC(=O)C4)[C@H]3CC[C@@]21C	active: 98.6%
Cc1c(NC(=O)c2cc(-c3cccc(O)c3)on2)c(=O)n(-c2ccccc2)n1C	inactive: 7.8%
Cc1ccc2ncc(C(=O)N3CCN(c4ccccc4F)CC3)c(=O)n2c1	inactive: -0.506%
CCOC(=O)N1CCc2c(sc3c2c(=O)n(Cc2ccccc2)c(=O)n3Cc2ccccc2Cl)C1	inactive: -4.06%
CCc1ccccc1NC(=O)N1CCc2c([nH]c3ccccc23)C1c1ccc(C)cc1 (configuration not stated)	inactive: -31.3%
COc1ccc(CCNC(=O)c2cnn(-c3ccc(F)cc3)c2C2CCN(C(=O)OC(C)(C)C)CC2)c(OC)c1	inactive: -17.3%
Cc1ccc(S(=O)(=O)N(CC(=O)NCCc2ccc(Cl)cc2)c2ccccc2C)cc1	inactive: 2.47%
CCc1ccc(OCC(=O)N(Cc2ccc(C)o2)C2CCS(=O)(=O)C2)cc1 (configuration not stated)	inactive: -28.1%
COc1cccc(NC(=O)C2CCN(c3nnc(C)c4c(C)n(-c5ccccc5)nc34)CC2)c1	inactive: -0.441%
Cc1ccc(OCC(=O)Nc2nc(-c3ccc(Br)cc3)ns2)cc1C	inactive: -8.07%
COc1ccc(CNc2nc3ccccc3c3nc(-c4ccccc4)nn23)cc1	inactive: -9.05%
CC(=O)c1ccc(NC(=O)c2nc(-c3ccc(C)cc3)n3c2CCCCC3)cc1	inactive: -4.99%
Cc1ccccc1OCC(=O)Nc1ccc2nc(SCc3ccccc3)sc2c1	inactive: 9.22%
COc1ccc(-c2ccc(NS(=O)(=O)c3cccc(C)c3)cc2)nn1	inactive: 2.47%
COc1ccc(OCC(=O)NC2CC(=O)N(c3ccc4c(c3)OCCO4)C2)cc1 (configuration not stated)	inactive: -15.7%
CC(=O)OCC(=O)[C@@]1(O)CC[C@H]2[C@@H]3CCC4=CC(=O)C=C[C@]4(C)[C@@]3(F)[C@@H](O)C[C@@]21C	inactive: -4.96%
Cc1ccc(C)c(CN2C(=O)C3(c4ccccc42)N(c2ccc(Cl)cc2)C(=O)CS3(=O)=O)c1 (configuration not stated)	inactive: -6.23%
COc1ccc(CCNC(=O)C2CCN(c3nc4ccccc4nc3C(F)(F)F)CC2)c(OC)c1	inactive: 6.23%
CCc1ccc(NS(=O)(=O)c2c(C)nc3sc(CC)nn3c2=O)cc1	inactive: 13.9%
Cc1cccc(NC(=O)CSc2nc(-c3ccccc3Cl)nc3c2Cc2c(CO)cnc(C)c2O3)c1C	inactive: -13.6%
COc1ccc(CCNc2nc3c(-c4cccc(F)c4)nnn3c3ccccc23)cc1OC	inactive: -2.43%

SMILES	activation
CC1CCN(c2nc3c(S(=O)(=O)c4ccc(Cl)cc4)nnn3c3ccsc23)CC1	inactive: 1%
CC(=O)N1c2ccccc2CC1C(=O)NCc1cccc(Cl)c1 (configuration not stated)	inactive: 7.47%
CC(=O)OCC(=O)[C@@]1(O)CC[C@H]2[C@@H]3CCC4=CC(=O)CC[C@]4(C)[C@H]3C(=O)C[C@@]21C	inactive: 10% and inactive: -1.61%
COc1ccc(-c2cc(C)no2)cc1S(=O)(=O)N1CCN(c2ccccc2F)CC1	inactive: -20.8%
CCOc1cccc(C2CC(=O)Nc3cc4c(cc32)OCCO4)c1 (configuration not stated)	inactive: -6.15%
CCc1ccccc1NC(=O)c1ccc(CN2C(=O)CCn3nc(C)cc32)cc1	inactive: -14.2%
COCCNC(=O)C1CCN(c2nc3ccccc3nc2C(F)(F)F)CC1	inactive: -18.4%
Cc1ccccc1NC(=O)CSc1cn(CC(=O)N(C(C)C)C(C)C)c2ccccc12	inactive: -12.8%
COc1cc2c(cc1OC)C(COc1ccc3c(C)cc(=O)oc3c1)N(C(=O)c1ccccc1F)CC2 (configuration not stated)	inactive: -1.19%
COc1cc(C(=O)N2CCOCC2)cc(OC)c1OC	inactive: 2.31%
COc1cc2c(cc1OC)n(Cc1ccc([N+](=O)[O-])cc1)c(=O)n1nc(-c3ccccc3)nc21	inactive: -5.11%
Cc1cccc(NC(=O)Cn2c(=O)ccc3cc(S(=O)(=O)N4CCCC4)ccc32)c1C	inactive: 22.5%
CC(=O)c1ccc(NC(=O)C2CCC(CNS(=O)(=O)c3cccs3)CC2)cc1 (configuration not stated)	active: 108%
COc1cccc(Cc2nc3ccccc3nc2SCC(=O)NCc2ccc(C)cc2)c1	inactive: -10.8%
COc1ccc(CCNC(=O)c2ccc3c(c2)nc2n3CCC(C)C2)cc1OC (configuration not stated)	inactive: -8.9%
CCOC(=O)c1noc2nc(C)n(Cc3cccc(C#N)c3)c(=O)c12	inactive: -19.2%
CNCC[C@H](Oc1ccc(C(F)(F)F)cc1)c1ccccc1	inactive: -3.21%
CCOc1ccc(NC(=O)N2CCN(Cc3cc(=O)n4nc(-c5ccc(OC)cc5)sc4n3)CC2)cc1	inactive: -2.83%
COc1ccc(N2C(=O)CS(=O)(=O)C23C(=O)N(Cc2ccc(C)cc2)c2ccccc23)cc1Cl (configuration not stated)	inactive: -30.7%
O=C(NCc1ccc(F)cc1)c1ccc2c(c1)nnn2C1CCCC1	inactive: -3.23%
CCOC(=O)c1[nH]c(C)c(CCC(=O)NCc2ccc(OC)cc2)c1C	inactive: -12.6%
Cc1c(NC(=O)c2cc(-c3ccc(Cl)cc3)on2)c(=O)n(-c2ccccc2)n1C	inactive: 17.7%
Cc1ccccc1-c1nnc(SCC(=O)N(C)C2CCCCC2)o1	inactive: -19.7%
CCNC(=O)c1ccc(CSc2nc3ccncc3n2Cc2ccc(F)cc2)cc1	inactive: -1.42%
CCN(C(=O)Cn1cnc2onc(-c3ccc(F)cc3)c2c1=O)c1cc(C)ccc1C	inactive: 2.64%
CO[C@]12C[C@@H](COC(=O)c3cncc(Br)c3)CN(C)[C@@H]1Cc1cn(C)c3cccc2c13	inactive: 0.983%
